Some of the results follow. The full chains were built here from the parent and the listed change. Values near 0.05 are background.
B1: TEV protease; numbered along this chain (parent)
chain: MGESLFKGPRDYNPISSSICHLTNESDGHTTSLYGIGFGPFIITNKHLFRRNNGTLVVQSLHGVFKVKDTTTLQQHLVDGRDMIIIRMPKDFPPFPQKLKFREPQREERICLVTTNFQTKSMSSMVSDTSCTFPSGDGIFWKHWIQTKDGQCGSPLVSTRDGFIVGIHSASNFTNTNNYFTSVPKNFMELLTNQEAQQWVSGWRLNADSVLWGGHKVFMVKPEEPFQPVKEATQL

Variants of: B1
Experiment: raw area under fraction-flipped curve 0-4 h after induction (AUC4h, not background-subtracted), DNA-recorder readout of cleavage of the substrate (dimensionless); higher = more cleavage of the substrate by the protease variant
Settings: temperature: 34 °C; time window: 0-4 h after rhamnose induction
Method: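 In vivo DNA recorder in E. coli TOP10(DE3) ΔrhaA at 34 °C. Each TEVp single-site mutant (parent TEVp 0) is paired with a single-site variant of the 7-mer TEVs (canonical ENLYFQ|S). The substrate sits between flexible linkers in a Bxb1-sfGFP-TEVs-SsrA fusion, so cleavage stabilises Bxb1 and speeds flipping of a recombination array, read by NGS. The value is the raw area under the fraction-flipped curve over 0-4 h after rhamnose induction (AUC4h), with ≥20 reads per time point. It is not background-subtracted; inactive controls average about 0.047.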
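Further: Bxb1 expression induced with 0.2% (w/v) L-rhamnose at OD600 near 0.5, cultures sampled hourly, flipped fraction per protease–substrate barcode pair counted by paired-end Illumina sequencing.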

Row | Variant | area with substrate ENLYFAS | area with substrate ENLYFES | area with substrate ENLYFFS | area with substrate ENLYFGS | area with substrate ENLYFNS | area with substrate ENLYFPS | area with substrate ENLYFRS | area with substrate ENLYFSS | area with substrate ENLYFCS | area with substrate ENLYFHS | area with substrate ENLYFIS | area with substrate ENLYFMS | area with substrate ENLYFTS | area with substrate ENLYFWS | area with substrate ENLYFDS | area with substrate ENLYFKS | area with substrate ENLYFLS | area with substrate ENLYFYS | area with substrate ENLYFVS
1 | MGESLFKGPRDYNPISSSICHLTNESDGHTTSLYGIGFGPFIITNKHLFRRNNGTLVVQSLHGVFKVKDTTTLQQHLVDGRDMIIIRMPKDFPPFPQKLKFREPQREERICLVTTNFQTKSMSSMVSDTSCTFPSGDGIHWKHWIQTKDGQCGSPLVSTRDGFIVGIHSASNFTNTNNYFTSVPKNFMELLTNQEAQQWVSGWRLNADSVLWGGHKVFMVKPEEPFQPVKEATQL [F140H] | 0.0505 | 0.0672 | 0.098 | 0.0536 | 0.0632 | 0.067 | 0.0603 | 0.0518 |  |  |  |  |  |  |  |  |  |  | 
2 | MGESLFKGPRDYNPISSSICHLTNESDGHTTSLYGIGFGPFIITNKHLFRRNNGTLVVQSLHGVFKVKDTTTLQQHLVDGRDMIIIRMPKDFPPFPQKLKFREPQREERICLVTTNFQTKSMSSMVSDTSCTFPSGDGIFWKHWIQTKDGQCGSPLVSTRDGFIVGIHSASNFTNTNNYFTSVPKNFMELLTNQEAQQWVSGWRANADSVLWGGHKVFMVKPEEPFQPVKEATQL [L205A] | 0.0425 | 0.0522 | 0.0827 | 0.056 | 0.0403 |  | 0.0471 |  | 0.0558 | 0.0527 | 0.0572 | 0.0473 | 0.0288 | 0.0604 |  |  |  |  | 
3 | MGESLFKGPRDYNPISSSICHLTNESDGHTTSLYGIGFGPFIITNKHLFRRNNGTLVVQSLHGVFKVKDTTTLQQHLVDGRDMIIIRMPKDFPPFPQKLKFREPQREERIVLVTTNFQTKSMSSMVSDTSCTFPSGDGIFWKHWIQTKDGQCGSPLVSTRDGFIVGIHSASNFTNTNNYFTSVPKNFMELLTNQEAQQWVSGWRLNADSVLWGGHKVFMVKPEEPFQPVKEATQL [C111V] | 0.0496 | 0.0495 | 0.0686 | 0.0509 | 0.0634 | 0.0579 | 0.0389 |  | 0.0578 | 0.0713 | 0.057 | 0.0577 | 0.0659 | 0.0542 | 0.062 | 0.0803 | 0.0644 | 0.0579 | 
4 | MGESLFKGPRDYNPISSSICHLTNESDGHTTSLYGIGFGPFIITNKHLFRRNNGTLVVQSLHGVFKVKDTTTLQQHLVDGRDAIIIRMPKDFPPFPQKLKFREPQREERICLVTTNFQTKSMSSMVSDTSCTFPSGDGIFWKHWIQTKDGQCGSPLVSTRDGFIVGIHSASNFTNTNNYFTSVPKNFMELLTNQEAQQWVSGWRLNADSVLWGGHKVFMVKPEEPFQPVKEATQL [M83A] | 0.0477 | 0.0609 | 0.0628 | 0.067 | 0.0668 | 0.057 | 0.0661 |  |  | 0.0363 | 0.0615 | 0.046 | 0.0557 |  | 0.0585 | 0.0628 | 0.0548 | 0.0543 | 0.0221
5 | MGESLFKGPRDYNPISSSICHLTNESDGHTTSLYGIGFGPFIITNKHLFRRNNGTLVVQSLHGVFKVKDTTTLQQHLVDGRDMIIIRMPKDFPPFPQKLKFREPQREERICLVTTNFQTKSMSSMVSDTSCTFPSGDGIFWKHWIQTKDGQCGSPLVSTRDGFIVGIHSASNFTNTNNYFTSVPKNFMELLTNQEAQQWVSGWRLNADSVLWGGHKVFMVKREEPFQPVKEATQL [P222R] | 0.0615 | 0.0702 | 0.06 | 0.075 | 0.0641 | 0.0539 | 0.051 |  | 0.046 | 0.0852 | 0.0537 | 0.0639 | 0.0646 | 0.0644 |  | 0.0585 | 0.0543 |  | 
6 | MGESLFKGPRDYNPISSSICHLTNESDGHTTSLYGIGFGPFIITNKHLFRRNNGTLVVQSLHGVFKVKDTTTLQQHLVDGRDMIIIRMPKDFPPFPQKLKFREPQREERICLVTTNFQTKSMSSMVSDTSCTFPSGDGIFWKHWILTKDGQCGSPLVSTRDGFIVGIHSASNFTNTNNYFTSVPKNFMELLTNQEAQQWVSGWRLNADSVLWGGHKVFMVKPEEPFQPVKEATQL [Q146L] | 0.0542 | 0.0641 | 0.0685 |  |  |  | 0.0568 |  |  |  | 0.0544 | 0.0802 | 0.0588 |  |  | 0.0647 | 0.0666 |  | 0.0547
7 | MGESLFKGPRDYNPVSSSICHLTNESDGHTTSLYGIGFGPFIITNKHLFRRNNGTLVVQSLHGVFKVKDTTTLQQHLVDGRDMIIIRMPKDFPPFPQKLKFREPQREERICLVTTNFQTKSMSSMVSDTSCTFPSGDGIFWKHWIQTKDGQCGSPLVSTRDGFIVGIHSASNFTNTNNYFTSVPKNFMELLTNQEAQQWVSGWRLNADSVLWGGHKVFMVKPEEPFQPVKEATQL [I15V] | 0.0444 | 0.0606 |  | 0.0727 | 0.0511 | 0.0605 | 0.073 | 0.0781 | 0.0405 | 0.0592 | 0.0535 | 0.0657 | 0.0532 | 0.0542 |  | 0.0861 | 0.0595 |  | 0.0613
8 | MGESLFKGPRDYNPISSSICHLTNESDGHTTSLYGIGFGPFIITNKHLFRRNNGTLVVQSLHGVFKVKDTTTLQQHLVDGRDMIIIRMPKDFPPFPQKLKFREPQREERICLVTTNFQTKSMSSMVSDTSCTFPSGDGIFWKHWIQTKDGQCGSPLVSTRDGFIVGIHSADNFTNTNNYFTSVPKNFMELLTNQEAQQWVSGWRLNADSVLWGGHKVFMVKPEEPFQPVKEATQL [S171D] | 0.0561 | 0.0543 | 0.0667 |  |  | 0.0653 | 0.0452 |  |  | 0.0493 | 0.0572 | 0.0648 | 0.0509 | 0.0565 |  | 0.0683 | 0.0684 |  | 0.0645
9 | MGESLFKGPRDYNPISSSICHLTNESDGHTTSLYGIGFGPFIITNKHLFRRNNGTLVVQSLHGVFKVKDTTTLQQHLVDGRDMIIIRMPKDFPPFPQKLKFREPQREERICLVTTNFQTKSMSSMVSDTSCTFPSGDGIFWKHWIQTKDGQCGSPLVSTRDGFIVGIHSASNFTNTNNYFTSVPKNFMELLTNQEAQQWVSGWRLNADSVLWGGHKVFHVKPEEPFQPVKEATQL [M219H] | 0.049 | 0.0583 | 0.0648 | 0.0608 | 0.0554 | 0.0641 |  | 0.0485 | 0.0977 | 0.0608 | 0.0591 | 0.0608 |  |  |  | 0.0564 | 0.061 | 0.0582 | 
